# In ChEMBL document CHEMBL4888484, “Replenishing the malaria drug discovery pipeline: Screening and hit evaluation of the MMV Hit Generation Library 1 (HGL1) against asexual blood stage Plasmodium falciparum ,using a nano luciferase reporter read-out” (2022):
# About 540 (0.36%) of roughly 150,000 compounds showed an effect of 50% or more. Some of the results follow.
# Tested on: Plasmodium falciparum
# Experiment: Primary screen in NF54 nanoGlo assay, in single point, at 2uM, 72h; a lower Z score goes with more inhibition
# Assay type: functional, Erythrocyte
# Details: timepoint 72 hour
SMILES,% Inhibition,Z score
CCOc1ccc(Cl)cc1CCNC(=O)[C@@H]1CNC(=O)O1,1%,-0.22
O=C(NCC(=O)N1CC(Oc2cccnc2)C1)OCc1ccccc1,-10%,1.98
CCOc1ccc(C(=O)N[C@H]2CC[C@H](Oc3ncc(F)cn3)CC2)cn1,-13%,1.53
Cc1ccc(C(=O)N(C2CCOCC2)[C@H]2CCN(S(C)(=O)=O)C2)cc1C,28%,-3.2
O=C(Cn1cccn1)N1CCC(c2ncc(C(F)(F)F)[nH]2)CC1,7%,-1.33
COC(=O)c1csc(-n2nc(C(F)F)cc2-c2ccccc2)n1,7%,-0.93
Oc1cc(CC[C@H]2CCCCN2)cc(-c2ncnc3sccc23)c1,2%,-0.28
CCCn1cc(CN/C(=N\c2ccc(F)cc2)NC(=O)c2cccc(N(C)C)c2)c(C)n1,8%,-1.33
COc1ccccc1CN1CCC2(CCC(=O)N(Cc3cnc(C)cn3)C2)CC1,-2%,0.23
CC1(C)CC(C(=O)Oc2ccccc2)CC(C)(C)N1,42%,-5.46
Nc1ccc(F)cc1OCCC(F)(F)F,3%,-0.49
C=CCNC(=O)C1(NC(=O)[C@H](C)n2cncn2)CCCCC1,-14%,1.26
CC(=O)N1CCC[C@H](C(=O)N2CCc3cc(C(N)=O)n(C)c3C2)C1,6%,-1.04
Cc1ccc(=O)n(CN2CCc3c(Br)cccc3C2)n1,-10%,1.42
Brc1ccccc1OCCN1CCc2[nH]ncc2C1,-1%,0.11
Cc1ncncc1C(=O)NCCc1cccc(Br)c1C,-20%,2.73
COC(=O)c1[nH]nc(C2CC2)c1Cl,-1%,0.16
Cc1ccccc1C(CN1CCOCC1)NC1CC(C)OC(C)C1 (stereo not given),-10%,1.03
CC1CN(C(=O)C2CCN(CC3CCC=CO3)CC2)CC(C)O1 (stereo not given),-4%,0.4
O=C(Cn1nc(-c2ccccc2)c2cnc3ccccc3c21)Nc1cccc(F)c1,-25%,2.24
C=CCC[C@@H](CN(C)Cc1cccnc1)Oc1cnccn1,-6%,1.16
OC1(CN2CCC(Nc3ncncc3Br)CC2)CCCCC1,-6%,1.05

SMILES,% Inhibition,Z score
CCNC(=O)[C@H]1CCN(C(=O)c2ccc(-c3ccc4c(c3)CCO4)cc2)C1,-15%,2.64
O=C1CNC(=O)N1CCNc1snc2ccccc12,-6%,0.72
c1ccc(-c2cncnc2N2CC(c3ncc(C4CC4)cn3)C2)cc1,-9%,1.44
COc1ccc(CNC(=O)Cn2c(=O)c(-c3noc(C)n3)c3n(c2=O)CCCC3)cc1,5%,-0.66
CCCOc1ccccc1[C@H](C)N1CC2(CCNCC2)CCC1=O,-2%,0.23
CC(C)N(C)S(=O)(=O)N1CCC[C@H]1c1nnc2ccccn12,1%,-0.19
Cc1ccc(-c2cnc(C3CC3)o2)cc1S(=O)(=O)N1CCCc2ccccc21,5%,-0.92
O=C(NC[C@H](O)COCC1CC1)c1cc(F)c(F)c(F)c1,-5%,0.7
O=C1CCCCCN1Cc1ccccc1C(F)(F)F,7%,-1.15
O=C(CCc1nc(C2CC2)no1)OCCOc1ccc(Cl)cc1,0%,-0.06
CC(=O)Nc1ccc(NC(=O)C(=O)NCCCN2CCCC2=O)cc1,-18%,2.83
C[C@H](Oc1ccc(Cl)cc1)C(=O)n1nnc2ccccc21,-2%,0.25
CC(C)C1CC(CC(=O)N2CCOC(C(C)O)C2)CCO1 (stereo not given),-13%,2.28
O=C(CCC(=O)N1CCC[C@H]1c1nc(C2CC2)no1)Nc1ccccc1,-14%,2.46
COc1ccccc1[C@@H]1NC(=O)CN(C)C1=O,13%,-1.7
CCc1nc(CCNS(=O)(=O)c2c(Br)cc(F)cc2Br)sc1C,-11%,1.69
Cc1nn(C)c(C)c1CCC(=O)N1CCc2c(cccc2N2CCOC2=O)C1,-8%,1.34
Cc1ccc(Nc2ccccc2NS(=O)(=O)c2ccc(S(=O)(=O)C(F)F)cc2)cc1,-5%,0.85
C[C@@H](C(=O)N(CCC#N)c1ccccc1)n1ccnn1,-2%,0.3
CCCCCn1c(=O)sc2c(NC(=O)OCC)c(F)cc(Cl)c21,-10%,1.31
C=CCC1(OC)CCN(C(=O)c2ccc3nc(-c4ccccc4)cn3c2)CC1,-8%,0.89
CN(C(=O)c1ccc(OCC2CCOCC2)nc1)c1ccccc1,-20%,3.76

SMILES,% Inhibition,Z score
O=C(c1c[nH]c(=O)[nH]1)N1CCC(n2c(=O)[nH]c3ccccc3c2=O)CC1,-20%,2.59
CCN1CCC[C@](C)(C(=O)N2CCN(C(=O)c3ccccc3)CC2)C1,-22%,3.26
Cc1cc(C)n(CNc2ccccc2C)n1,-1%,0.08
CCOC1CC(NC2CCN(Cc3ccccc3)CC2)C12CCCO2 (stereo not given),12%,-1.51
O=C(NCC1CC1)C1Cc2cc(C(F)(F)F)ccc2N2CCN(c3ccccc3)CC12 (stereo not given),-10%,1.29
Cc1nc(CN2C[C@H]3CN(C4CCCCC4)C[C@@]3(C(=O)O)C2)c(C)s1,-3%,0.56
COc1cc(COCC2CCN(CC(=O)N3CCOCC3)CC2)cc(OC)c1,-7%,0.79
Cc1noc(C)c1C(=O)N1CCCC1(C)C,-15%,2.27
Cc1nc2ncnn2c(N2CC3(CCN3Cc3ccccc3)C2)c1C,-5%,0.52
Cc1[nH]c(=O)c(C#N)cc1C(=O)N1CC[C@@]2(CCCN(CC3CCC3)C2=O)C1,2%,-0.3
Cc1ccc(O[C@@H](C)CNC(=O)CCc2cscn2)cc1,1%,-0.15
CNC(=O)c1ccc(-c2ccc(C(=O)NC3(C(N)=O)CCCC3)cc2)o1,-15%,2
c1cncc(-c2ncc(CN3CCOCC3)s2)c1,-5%,0.95
CC(C)c1noc(CN[C@@H](C)c2ccc(-c3cccc(C#N)c3)cc2)n1,-15%,1.46
CCN(CC)c1ccc(NS(=O)(=O)c2cc(-c3cc(C)no3)ccc2OC)c(C)c1,-20%,2.64
Cc1cc2nccc(NC(=O)N3CCOCC4(CC4)C3)n2n1,-10%,1.98
C=CCN1C[C@H](C)N(C(=O)c2ccc(-c3ccc(F)cc3O)cc2)C[C@@H]1C,8%,-1.04
O=S1(=O)C[C@H](NCCc2ccc(F)cc2)[C@@H](S(=O)(=O)c2ccccc2)C1,-4%,0.48
CN1CCC(N(CCc2ccccc2)C(=O)c2cccc(CO)c2)CC1,-8%,1.28
CN(C)Cc1ccc(-c2ccc[nH]c2=O)cc1,-7%,1.24
CS(=O)(=O)CC1(CC(=O)N2CCOCc3ccccc32)CC1,-17%,3.67
Cc1cc(Cl)ccc1NC(=O)c1n[nH]c2c1CCc1ccccc1-2,-5%,0.43

SMILES,% Inhibition,Z score
CCCc1cc(=O)n(-c2ccc(C(=O)N3CCNC[C@@H]3C)cc2)[nH]1,-4%,0.57
CC1(C)CC(=O)N(CC(=O)Nc2c(F)c(F)c(F)c(F)c2F)c2ccccc2S1(=O)=O,-6%,0.83
Cc1noc(C[C@H]2CCOC3(CCN(C(=O)c4cc(-c5ccc(F)cc5)n[nH]4)CC3)C2)n1,-10%,1.44
CCOc1ccc2c(c1)-c1c(ssc1=S)C(C)(C)N2C(=O)c1ccc2c(c1)OCO2,-4%,0.45
OC(COc1ccc(Cl)cc1Cl)CN1CCCN2CCCC2C1 (stereo not given),-10%,0.97
Cc1nccc(NCc2c(C)nn(C)c2C)c1Cl,-8%,1.03
CCS(=O)(=O)c1ccc(S(=O)(=O)N2C(C)CCCC2c2ccccc2)cc1 (stereo not given),3%,-0.47
O=C1O[C@](Nc2ccccc2)(c2ccccc2)c2ccccc21,-11%,2.04
Cc1ccc2c(c1)CN(CCNC(=O)c1cc(C(F)(F)F)n[nH]1)C[C@H](C)O2,-6%,1.11
CC(C)Oc1cc(N(C)C[C@H](O)CO)nc(N)n1,-18%,1.7
C[C@@H](CO)NS(=O)(=O)c1ccc(F)c(Br)c1F,-12%,1.48
C[C@@H](C(=O)NCc1cc2n(n1)CCN(C1CCCCC1)C2)N1CCCC1=O,-12%,1.51
CC(=O)NCC[C@H]1CCCCN1Cc1nc(C)cc(C)n1,-12%,1.63
Cc1ccc(C)c(S(=O)(=O)NCCNc2cc(N3CCOCC3)nc(C)n2)c1,-12%,1.98
Cc1cnc(C2CCOCC2)n1CC1CN(C(=O)c2ccsc2)C1,-17%,2.2
O=C(O)CC1(CC(=O)Nc2ccc3c(c2)OCCO3)CCCCC1,-9%,1.42
Cc1cccc(CN2CCN(Cc3cc(C#CCO)cs3)[C@@H](C)C2=O)c1,-1%,0.08
CC(C)N(Cc1ncc(C2OCCO2)s1)[C@@H](C)c1ccccc1,-7%,0.9
O=C(Cn1ncccc1=O)NCc1ccnc(-c2ccco2)c1,-5%,0.84
